# Several values for one entry are separate records, joined by “and”; a condition that tells them apart may be missing. Equal entries are not always repeated. Out of some 110,000 compounds screened, about 610 (0.55%) were called active. The shares of active, inactive and inconclusive entries below differ from those in the screen. The call rests on the fitted dose curve; in most records, active means well fitted inhibition curve with a large enough effect; inconclusive means small, poorly fitted or top-dose-only effect; inactive means no such curve, though single readings can be large or run the other way. Potencies beside an inconclusive call are fits to weak or partial responses and may not hold up.
# Biological target: Polyunsaturated fatty acid lipoxygenase ALOX15B (Homo sapiens) (UniProt O15296)
# Assay: qHTS Assay for Inhibitors of 15-hLO-2 (15-human lipoxygenase 2); further: nearly all actives have a fitted effect of over 60% in size
# Settings: purified 15hLO-2, xylenol orange hydroperoxide absorbance; activity change, negative = inhibition: at 57.1 µM (top of the series) unless noted
# Outline: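 Screening format was qHTS against 50 nM purified 15hLO-2 in Hepes pH 7.5 with detergent. Activity follows hydroperoxide formation from 45 uM arachidonic acid, measured as 573:405 nm absorbance ratio of the ferric-xylenol orange complex.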
# On the % scale 0 is the no-effect control and ±100 the full control effect; potency means the concentration at half of the fitted maximal effect; tags describe the fitted curve by direction and shape.
# Sequence of UniProt O15296 (O15296 whole entry, looked up): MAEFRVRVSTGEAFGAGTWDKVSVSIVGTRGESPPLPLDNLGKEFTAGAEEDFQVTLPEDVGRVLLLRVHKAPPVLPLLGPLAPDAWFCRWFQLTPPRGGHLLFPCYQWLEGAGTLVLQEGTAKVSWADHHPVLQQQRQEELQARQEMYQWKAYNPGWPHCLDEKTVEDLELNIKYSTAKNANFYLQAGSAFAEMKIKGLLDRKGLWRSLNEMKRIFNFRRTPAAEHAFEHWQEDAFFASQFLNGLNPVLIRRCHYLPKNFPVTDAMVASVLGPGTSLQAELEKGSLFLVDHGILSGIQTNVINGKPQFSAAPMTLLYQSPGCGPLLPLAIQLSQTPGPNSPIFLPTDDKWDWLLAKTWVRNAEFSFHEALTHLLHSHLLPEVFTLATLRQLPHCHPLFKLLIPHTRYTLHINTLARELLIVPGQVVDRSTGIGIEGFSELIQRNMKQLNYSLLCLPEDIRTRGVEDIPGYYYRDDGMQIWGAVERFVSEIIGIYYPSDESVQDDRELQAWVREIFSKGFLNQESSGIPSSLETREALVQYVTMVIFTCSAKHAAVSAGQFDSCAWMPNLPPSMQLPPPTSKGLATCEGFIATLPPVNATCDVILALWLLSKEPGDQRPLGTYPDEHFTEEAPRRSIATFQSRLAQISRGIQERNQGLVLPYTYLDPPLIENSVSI
Structure (SMILES),Potency,"activity change, negative = inhibition"
CCOC(=O)c1c(NC(=O)CSc2nnc(-c3ccccc3C)n2C)sc(C(C)=O)c1C,"inconclusive: 20 µM [inhibitor, partial curve, poor fit]",
Cc1ccccc1C(=O)NC(=S)Nc1sc2c(c1C#N)CCCC2,"inconclusive: 31.6 µM [inhibitor, single point]",
O=C(CSc1n[nH]c(-c2ccccc2)n1)c1ccc(O)c(O)c1,"inconclusive: 15.8 µM [inhibitor, partial curve]",
S=C1SCN(CCN2CCOCC2)CN1Cc1ccccc1,"inconclusive: 12.6 µM [inhibitor, partial curve]",
COc1cc2c3c(c1)/C(=C1/SC(NC(C)=O)=NC1=O)C(=O)N3C(C)(C)C=C2C,"inconclusive: 20 µM [inhibitor, single point]",
O=C(C1CCN(C2CC(=O)N(c3ccc(Cl)cc3)C2=O)CC1)N1CCOCC1 (stereo not given),"inconclusive: 39.8 µM [inhibitor, single point]",
COc1cccc(-c2cc(C(=O)NCc3ccc(Cl)cc3)no2)c1,"inconclusive: 25.1 µM [inhibitor, single point]",
CCc1ccccc1NC(=S)N1CCC(C(=O)c2ccc(F)cc2)CC1,"inconclusive: 12.6 µM [inhibitor, partial curve]",
O=C1/C(=N/n2cnnc2)c2ccccc2N1Cc1ccccc1,"inconclusive: 10 µM [inhibitor, partial curve]",
C=CC(=O)c1ccc2ccccc2c1,active: 2 µM,
N#CC(=C(/N)Sc1ccccc1N)/C(C#N)=C(/N)Sc1ccccc1N,"inconclusive: 25.1 µM [inhibitor, single point] and inconclusive: 5.01 µM [inhibitor, full curve, poor fit]",
CSC1=N/C(=C\C=C\c2cccs2)C(=O)S1,"inconclusive: 31.6 µM [inhibitor, single point]",
Cc1ccc(/C=C/C2=Cc3c(sc(NC(=O)CSc4n[nH]c(N)n4)c3C#N)C(C)(C)C2)o1,"inconclusive: 3.98 µM [inhibitor, partial curve]",
N#C/C(=C\c1ccc(O)c(O)c1)C(=O)NCc1ccccc1,"inconclusive: 39.8 µM [inhibitor, partial curve, poor fit]",
Cc1ccc2oc(-c3cccc(NC(=S)NC(=O)/C=C/c4ccco4)c3)nc2c1,"inconclusive: 20 µM [inhibitor, single point]",
CCN(CC)C(=O)CSc1nc(C)cc(-c2cccs2)c1C#N,"inconclusive: 39.8 µM [inhibitor, single point]",
Cc1ccc(N2C(=O)CC(Sc3nc4ccccc4o3)C2=O)cc1Cl (stereo not given),"inconclusive: 12.6 µM [inhibitor, partial curve]",
COc1ccc([N+](=O)[O-])cc1C1NN=C(c2ccccc2O)S1 (stereo not given),"inconclusive: 3.98 µM [inhibitor, partial curve]",
C/C(CC(=O)Nc1ccc(Cl)cc1Cl)=N\NC(N)=S,"inconclusive: 10 µM [inhibitor, partial curve]",
COc1ccc(Nc2oc(-c3cccs3)nc2C#N)cc1,"inconclusive: 5.01 µM [inhibitor, full curve]",

Structure (SMILES),Potency,"activity change, negative = inhibition"
COc1cc(OC)c2c(c1)OC(=O)CC2c1ccccc1OC (stereo not given),,inactive: 10.2% [at 0.0915 µM]
Cc1ccc(NC(=O)CSc2nc3ccccc3c3nc4ccccc4n23)cc1,"inconclusive: 25.1 µM [inhibitor, single point]",
Cn1cc(/C=N/n2cnc3scc(-c4ccc(Cl)cc4)c3c2=O)c2ccccc21,"inconclusive: 15.8 µM [inhibitor, partial curve]",
CC(=O)Nc1cc(-c2ccccc2)ccc1O,"inconclusive: 39.8 µM [inhibitor, single point]",
O=C(Cc1ccc(Cl)cc1)NNC(=O)Nc1cccc2ccccc12,"inconclusive: 25.1 µM [inhibitor, single point]",
COC(=O)c1cc(NS(=O)(=O)c2ccc(N3CCCCC3)c([N+](=O)[O-])c2)cc(C(=O)OC)c1,"inconclusive: 0.199 µM [inhibitor, full curve]",
C#CCOC(=O)Nc1ccc(=O)n(Cc2c(Cl)cccc2Cl)c1,"inconclusive: 3.16 µM [inhibitor, partial curve]",
CC(Sc1cnc2ccccc2n1)C(=O)O (stereo not given),,inactive: -1.34%
CCOC(=O)c1c(C)n(C)c2ccc(O)c(CN3CCCCC3)c12,"inconclusive: 25.1 µM [inhibitor, single point]",
Cc1ccc(/C=c2\sc3n(c2=O)CN(c2cccc(Br)c2)CN=3)o1,"inconclusive: 15.8 µM [inhibitor, partial curve]",
Cc1nn(CCc2n[nH]c(=S)n2C2CCCCC2)c(C)c1Br,"inconclusive: 20 µM [inhibitor, single point]",
Oc1ccc(-c2csc(NCc3ccco3)n2)cc1,"inconclusive: 10 µM [inhibitor, partial curve]",
CCn1c(-c2ccccc2)c[nH]c1=S,"inconclusive: 39.8 µM [inhibitor, single point]",
CCCCn1c(SCC(=O)Nc2cc(NC(=O)c3ccco3)ccc2C)nc2ccccc2c1=O,"inconclusive: 39.8 µM [inhibitor, single point]",
COc1ccc(N2CSC3=C(C#N)C(c4cc(OC)c(OC)cc4OC)CC(=O)N3C2)c(OC)c1 (stereo not given),"inconclusive: 10 µM [inhibitor, partial curve]",
CCSC1=C(C#N)C(=O)n2c1cc1c2CCCC1,"inconclusive: 12.6 µM [inhibitor, partial curve]",
COc1ccc2c(C)c(C(=O)O)oc2c1,,inactive: -1.54%
CC1=C(/C=C/C(=C/C=C/C(C)=C/C(=O)O)c2ccc(C)cc2)C(C)(C)CCC1,"inconclusive: 28.2 µM [inhibitor, partial curve]",
Cc1cc(C)c(S(=O)(=O)Nc2ccc3c4c(cccc24)CC3)c(C)c1,"inconclusive: 10 µM [inhibitor, partial curve]",
O=C(O)C(=Cc1ccc(-c2ccccc2)cc1)C(=O)O,,inactive: -2.04% [at 11.4 µM]
